Laboratory results published in publication PMC4336329 (PLoS ONE, 2015).
Out of some 310,000 compounds screened, about 14,000 (4.5%) showed an effect of 50% or more. Effects have a minus sign here. This is one part of the list.

biological target: human ether-à-go-go-related gene (hERG) potassium channel (human, UniProt Q12809); test: primary screen, population patch clamp on CHO cells stably expressing hERG
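Further: peak tail current of the secondary pulse compared with the same well before compound.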

Sequence of human ether-à-go-go-related gene (hERG) potassium channel (Q12809 whole entry, looked up): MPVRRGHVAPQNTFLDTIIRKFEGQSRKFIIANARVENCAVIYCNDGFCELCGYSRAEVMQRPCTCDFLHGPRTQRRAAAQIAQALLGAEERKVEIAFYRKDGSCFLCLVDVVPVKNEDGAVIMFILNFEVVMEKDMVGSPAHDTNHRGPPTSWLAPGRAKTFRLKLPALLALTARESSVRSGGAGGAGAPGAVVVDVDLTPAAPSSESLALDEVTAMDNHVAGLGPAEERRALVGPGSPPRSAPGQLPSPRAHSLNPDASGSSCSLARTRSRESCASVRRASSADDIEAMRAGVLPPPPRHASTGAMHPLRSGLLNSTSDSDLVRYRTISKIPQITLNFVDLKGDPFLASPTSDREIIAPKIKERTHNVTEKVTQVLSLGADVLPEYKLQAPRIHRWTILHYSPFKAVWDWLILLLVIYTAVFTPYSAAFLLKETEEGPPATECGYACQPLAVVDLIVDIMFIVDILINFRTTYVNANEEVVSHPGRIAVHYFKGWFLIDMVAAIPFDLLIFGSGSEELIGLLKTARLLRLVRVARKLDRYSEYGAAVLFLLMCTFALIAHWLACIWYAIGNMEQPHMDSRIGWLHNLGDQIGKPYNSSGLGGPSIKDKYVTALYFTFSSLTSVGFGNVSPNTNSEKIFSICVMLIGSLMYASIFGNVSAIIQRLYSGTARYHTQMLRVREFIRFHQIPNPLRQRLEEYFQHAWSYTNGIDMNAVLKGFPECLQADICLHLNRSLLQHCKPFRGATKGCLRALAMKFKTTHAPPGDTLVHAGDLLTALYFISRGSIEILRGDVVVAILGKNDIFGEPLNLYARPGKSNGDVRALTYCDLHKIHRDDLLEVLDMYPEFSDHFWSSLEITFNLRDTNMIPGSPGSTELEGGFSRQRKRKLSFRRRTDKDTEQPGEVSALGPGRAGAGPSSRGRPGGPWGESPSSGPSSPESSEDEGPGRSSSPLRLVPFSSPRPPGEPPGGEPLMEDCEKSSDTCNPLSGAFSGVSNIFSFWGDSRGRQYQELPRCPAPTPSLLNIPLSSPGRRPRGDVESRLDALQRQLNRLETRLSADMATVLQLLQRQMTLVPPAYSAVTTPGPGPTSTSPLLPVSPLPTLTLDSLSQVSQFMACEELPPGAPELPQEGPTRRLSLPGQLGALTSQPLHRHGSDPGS

SMILES | hERG current change (%, negative = inhibition) at 10uM
COCCNC(=O)C(c1ccc(O)cc1)N(C(=O)CCC(=O)Nc1nccs1)c1ccc(C)cc1 (stereo not drawn) | 1.69%
C[C@@H](C(=O)NCc1c(F)cccc1Cl)N1C(=O)N2CCc3c([nH]c4ccccc34)[C@@]2(C)C1=O | -10.8%
COc1ccccc1NC(=O)C(=N\O)/C(C)=N/O | 5.64%
CCOc1ccc2[nH]c(=O)c(CN(Cc3ccc(F)cc3)C(=O)c3ccco3)cc2c1 | -31.8%
O=c1[nH][nH]c(=O)c2cc([N+](=O)[O-])ccc12 | 25.2%
CCOc1cc(NC(=S)NC)c(OCC)cc1NC(=O)c1ccc(OC)cc1 | -1.61%
CC1(OC(=O)C2CCCC2)C(=O)C=C2C=C3CCCN3C=C2C1=O (stereo not drawn) | -3.77%
COc1ccccc1NS(=O)(=O)c1cc(NC(=O)CCc2nc3ccccc3c(=O)[nH]2)ccc1C | -24.9%
O=C(CC(Sc1n[nH]c(-c2ccccc2)n1)c1ccccc1)NCc1ccccc1 (stereo not drawn) | -16%
CCN(c1ccc(NC(=O)COC(=O)c2ccc3ccccc3n2)cc1)C(C)C | 3.98%
Cc1ccc(C(=O)N2CCN(c3cc(=O)[nH]nc3-c3ccccc3)CC2)cc1 | -41.7%
CC(Oc1ccc([N+](=O)[O-])cc1)C(=O)NCCCN1CCOCC1 (stereo not drawn) | -16.8%
Cc1ccccc1Cn1cc(NC(=O)c2cc(C3CC3)on2)cn1 | -2.87%
COCCOCCOCCC(=O)NC1CC2CCC1(C)C2(C)C (stereo not drawn) | 0.486%
CCOC(=O)c1c(-c2ccc(OC)cc2)csc1NC(=O)CSc1nnc(C)c(=O)[nH]1 | 16.1%
CCN1CCN(C(=O)C2CCC(=O)N(Cc3cccc(C(F)(F)F)c3)C2)CC1 (stereo not drawn) | 14%
CCCCN(C(=O)c1cc(Cl)nc2ccccc12)c1c(N)n(CCCC)c(=O)[nH]c1=O | 3.26%
OCCc1ccc(O)c(-n2nc3ccccc3n2)c1 | -17.1%
Cc1noc(NS(=O)(=O)c2ccc(NC(=O)c3ccc(OC(C)C)cc3)cc2)c1C | 15.4%
Cc1ccccc1-c1nc(CN2CCCC(C(=O)NCc3cccnc3)C2)c(C)o1 (stereo not drawn) | -64%
COc1cccc(-c2cc(C(F)(F)F)nc(-n3cc(Cl)cn3)n2)c1 | -6.19%

SMILES | hERG current change (%, negative = inhibition) at 10uM
CCc1nnc(NC(=O)CN2CCN(C3CCCCC3)CC2)s1.O=C(O)C(=O)O | -11.4%
COc1ccc2c(c1)C(=O)c1ccccc1CO2 | -0.833%
CCOc1ccccc1N1CC(C(=O)Nc2ccc3c(c2)OCCO3)CC1=O (stereo not drawn) | 11.2%
CC(=NCCCN1CCOCC1)c1c(O)[nH]c(=O)[nH]c1=O | -2.27%
O=C(Nc1ccccc1C(=O)O)c1cccc(NC(=O)c2ccc(Br)o2)c1 | 7.57%
CCCCNC(=O)c1onc(CSc2ccc(F)c(F)c2)c1C(=O)O | 0.742%
CN1CCN(C(=O)C2=C[C@H](c3ccc(C(F)(F)F)cc3)C[C@H](OCCCCO)O2)CC1 | -18.2%
CC1(C)CC(=O)C2=C(C1)N(c1ccc(F)cc1)C(=O)C2(O)C(F)(F)F (stereo not drawn) | -15.2%
CS(=O)(=O)c1nc(-c2ccccc2)cc(-c2ccccc2)c1C#N | 8.33%
CC(=O)Nc1sc(N/N=C/c2ccccc2F)nc1-c1ccc(C)cc1 | -1.61%
O=C1CCc2cc(S(=O)(=O)N3CCC(C(=O)NC4CCCC4)CC3)ccc2N1 | -4.68%
O=C(CSCc1ccccc1)N=Nc1c(O)[nH]c2ccccc12 | -19.1%
COc1ccc(C(=O)CC(=O)C(=O)Nc2ccccc2C(F)(F)F)cc1 | 6.25%
CC12C(=O)N(c3ccccc3C(=O)O)C(=O)C1C1C=CC2C1 (stereo not drawn) | 16.7%
COc1ccc(NC(=O)COC(=O)c2ccc(OCc3c(C)noc3C)cc2)cc1OC | 10%
COc1ccc2[nH]c(=O)c(C(c3nnnn3C3CCCCC3)N3CCN(C)CC3)cc2c1 (stereo not drawn) | -21.2%
Cc1cc(SCC(=O)N/N=C/c2cccnc2)nc2c(C)cccc12 | 12%
O=[N+]([O-])c1cnc(N2CCCCC2)c([N+](=O)[O-])c1 | 4.26%
Cc1ccc(CC(=O)N2CCN(c3ccc([N+](=O)[O-])cc3)CC2)cc1 | -62.1%
COc1ccc(CC(CC(=O)O)C(=O)NCc2ccccc2)cc1 (stereo not drawn) | 61.1%
COc1ccc2[nH]c3c(c2c1)CCN[C@H]3C | -3.82%
